Results are given in words; binding and its absence hold for the method and conditions named. In cells and extracts the contact can be indirect. Some binding calls cover weakened binding; strength is not graded here. For some of these results: Sequences can lack the tags named with a protein.
T1: FLAG-tagged full length ARMC12 (armadillo repeat-containing 12) (mouse) (UniProt Q80X86)
T1 sequence: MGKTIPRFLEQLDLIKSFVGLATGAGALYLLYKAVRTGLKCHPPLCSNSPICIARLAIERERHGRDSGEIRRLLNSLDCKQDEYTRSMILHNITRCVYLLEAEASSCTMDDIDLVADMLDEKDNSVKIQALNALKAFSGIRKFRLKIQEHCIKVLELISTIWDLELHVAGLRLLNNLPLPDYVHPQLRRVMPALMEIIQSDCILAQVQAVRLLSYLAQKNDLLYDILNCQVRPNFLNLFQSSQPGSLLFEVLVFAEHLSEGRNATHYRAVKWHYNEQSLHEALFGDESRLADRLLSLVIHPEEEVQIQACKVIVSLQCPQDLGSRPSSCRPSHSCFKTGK

T2: FIS1 (endogenous, mouse testicular germ cells) (mouse (endogenous in testicular germ cells)) (UniProt Q9CQ92)
T2 sequence: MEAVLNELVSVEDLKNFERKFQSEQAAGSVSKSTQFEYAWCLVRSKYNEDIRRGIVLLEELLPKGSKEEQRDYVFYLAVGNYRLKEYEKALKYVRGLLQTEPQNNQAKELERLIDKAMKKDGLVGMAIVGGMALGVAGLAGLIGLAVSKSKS

T3: FLAG-tagged ARMC12 from Armc12-FLAG knock-in mice (mouse) (UniProt Q80X86)
T3 sequence: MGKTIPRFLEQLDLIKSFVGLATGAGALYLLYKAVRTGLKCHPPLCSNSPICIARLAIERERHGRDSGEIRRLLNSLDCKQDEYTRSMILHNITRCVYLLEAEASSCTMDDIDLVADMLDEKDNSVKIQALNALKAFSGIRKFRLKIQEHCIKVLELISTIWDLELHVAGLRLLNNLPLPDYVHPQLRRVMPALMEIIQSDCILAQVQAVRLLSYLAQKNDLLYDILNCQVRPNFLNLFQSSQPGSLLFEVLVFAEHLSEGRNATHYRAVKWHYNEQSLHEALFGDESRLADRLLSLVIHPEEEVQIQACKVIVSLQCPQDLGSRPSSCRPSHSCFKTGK


What was measured:
[1] = target: T1, FLAG-tagged full length ARMC12 (armadillo repeat-containing 12) (mouse); experiment: co-IP; lysates of HEK293T cells transfected with FLAG-tagged ARMC12 (full length or truncated); immunoprecipitation with anti-FLAG antibody; immunoblot for the endogenous partner
[2] = target: T2, FIS1 (endogenous, mouse testicular germ cells) (mouse (endogenous in testicular germ cells)); experiment: co-IP; lysates of WT or FLAG-tagged Armc12 KI mouse TGC; immunoprecipitation with anti-FIS1 antibody, IgG as negative control; Western blot with anti-TBC1D15 and TBC1D21 antibodies
[3] = target: T3, FLAG-tagged ARMC12 from Armc12-FLAG knock-in mice (mouse); experiment: co-IP; lysates of testicular germ cells (TGC) from WT or FLAG-tagged Armc12 KI mice; immunoprecipitation with anti-FLAG antibody; Western blot

Row | Binder | binding [1] | binding [2] | binding [3]
1 | TBC1D15 (endogenous, HEK293T) (protein, UniProt Q8TC07 1-691) MAAAGVVSGKIIYEQEGVYIHSSCGKTNDQDGLISGILRVLEKDAEVIVDWRPLDDALDSSSILYARKDSSSVVEWTQAPKERGHRGSEHLNSYEAEWDMVNTVSFKRKPHTNGDAPSHRNGKSKWSFLFSLTDLKSIKQNKEGMGWSYLVFCLKDDVVLPALHFHQGDSKLLIESLEKYVVLCESPQDKRTLLVNCQNKSLSQSFENLLDEPAYGLIQAGLLDRRKLLWAIHHWKKIKKDPYTATMIGFSKVTNYIFDSLRGSDPSTHQRPPSEMADFLSDAIPGLKINQQEEPGFEVITRIDLGERPVVQRREPVSLEEWTKNIDSEGRILNVDNMKQMIFRGGLSHALRKQAWKFLLGYFPWDSTKEERTQLQKQKTDEYFRMKLQWKSISQEQEKRNSRLRDYRSLIEKDVNRTDRTNKFYEGQDNPGLILLHDILMTYCMYDFDLGYVQGMSDLLSPLLYVMENEVDAFWCFASYMDQMHQNFEEQMQGMKTQLIQLSTLLRLLDSGFCSYLESQDSGYLYFCFRWLLIRFKREFSFLDILRLWEVMWTELPCTNFHLLLCCAILESEKQQIMEKHYGFNEILKHINELSMKIDVEDILCKAEAISLQMVKCKELPQAVCEILGLQGSEVTTPDSDVGEDENVVMTPCPTSAFQSNALPTLSASGARNDSPTQIPVSSDVCRLTPA | binds |  | 
2 | TBC1 domain family member 21 (TBC1D21) (protein, UniProt Q9D9D3 1-336) MTTLSPENSLSARRSATFILEKRNPPIDKAEWDSFFDENGHLAKSRDFICINILERGLHPFVRTEAWKFLTGYYSWQSSRDERLMVDSNRRRNYNSLCQMYEKIQPLLENLHGNFTETRNNIAYDIQRLYDKDPLGNVLIDKKKLEKTLLLSYVCNTKAEYQRGFHEMVMLFQLMVEHDHETFWLFQFFLQKTEHSCVINIGVGKNLDMLNSLITLLDPEFAEHLKGKGSGAVQSLFPWFCLCFQRAFKTFDDVWRLWEVLLTGKPCRNFQVLVAYSMLQMVREQALLECMSGDAILMACNNLIDLDADELISAACVVYSELMQKEVPQPLKEFLL |  | no binding | binds
3 | OCIAD1 (endogenous, HEK293T) (protein, UniProt Q9NX40 1-245) MNGRADFREPNAEVPRPIPHIGPDYIPTEEERRVFAECNDESFWFRSVPLAATSMLITQGLISKGILSSHPKYGSIPKLILACIMGYFAGKLSYVKTCQEKFKKLENSPLGEALRSGQARRSSPPGHYYQKSKYDSSVSGQSSFVTSPAADNIEMLPHYEPIPFSSSMNESAPTGITDHIVQGPDPNLEESPKRKNITYEELRNKNRESYEVSLTQKTDPSVRPMHERVPKKEVKVNKYGDTWDE | no binding |  | 

Now from value to binder:

Row | binding [1] | binding [2] | binding [3] | Binder
4 |  |  | binds | GK2 (protein, UniProt Q9WU65 1-554) MAASKQTSAGPLVGAVVQGTNSTRFLVFNSKTAELVCSHQVELTQEYPKEGWVEQDPKEILKSVYECIAKACEKLAEVNIDISNIKAIGVSNQRETTVVWDKFTGDPLYNAVVWLDLRTQSTVETLTKKIPGNSNFVKSKTGLPLSTYFSAVKLRWMLDNLRPIQKAVEEGRAMFGTIDSWLIWCMTGGVNGGIHCTDVTNACRTMLFNIHSLEWDKDLCDFFEIPMSILPNVCSSSEIYGLMTSGALEGVPISGCLGDQSAALVGQMCFHEGQAKNTYGTGCFLLCNTGQKCVFSEHGLLTTLAYKLGKNKPVFYALEGSVAIAGAVIRWLRDNFEIITTSGEVENLAREVGTSYGCYFVPAFSGLYAPYWEPSARGIICGLTQFTNKCHIAFAALEAVCFQTREILDAMNRDCGIPLSHLQVDGGMTNNRILMQLQADILHIPVVKSVMPETTALGAAMAAGAAEGVNVWSLEPEDLSTILMERYEPQIQATESEIRFSTWKRAVMKSMGWVTAKDPENGDNPVFSCLPLGFFIVSSMTLLIGARCVSTAEE
5 |  | no binding | no binding | TBC1D15 (endogenous, mouse testicular germ cells) (protein, UniProt Q9CXF4 1-671) MAAAGVVSGKIIYEQEGVYIHSSCGKANDQDSLISGILRVLEKDAEVIVDWRPLDDALDSSSILCAGKDSSSVVEWTQAPKERAHRGSDQQSSYEAEWDMVTTVSFKKKPHTNGDAPGHRNGKSKWSFLFSLADLKSVKQSKEGMGWSYLVFCLKDDVMLPALHFHQGDSKLLIESLEKYVVLCESPQDSRTLLVNCQNKSLSQSFENLLDEPAYGLIQKIKKDPYTATMVGFSKVTNYIFDSLRGSDPSTHQRPPSEMADFLSDAIPGLKINQQEEPGFEVITRIDLGERPVVQRREPVSLEEWNKSLDPEGRLVAVESMKQKIFRGGLSHSLRKQAWKFLLGYFPWDSTKEERTQLQKQKTDEYFRMKLQWKSVSEAQEKRNSRLRDYRSLIEKDVNRTDRTNKFYEGQDNPGLILLHDILMTYCMYDFDLGYVQGMSDLLSPLLYVMENEVDAFWCFASYMDQMHQNFEEQMQGMKTQLIQLSTLLRLLDSGFCSYLESQDSGYLYFCFRWLLIRFKREFSFLDILRLWEVMWTELPCKNFHLLLCCAILESEKQQIMAKHYGFNEILKHINELSMKIDVEDILCKAEAISLQMAQCKELPQAVCEILGLQDSEITTPDSDTDENVGSPCPVSAFPSSTLPILAASEAKDDSPTQTLASPNACRLTPA
